# Test results taken from the supplement of paper PMC8728848.
# This is one part of the list.
# B1: NKp30 (Homo sapiens), O14931 (protein)
# chain: MAWMLLLILIMVHPGSCALWVSQPPEIRTLEGSSAFLPCSFNASQGRLAIGSVTWFRDEVVPGKEVRNGTPERFGRLAPLASSRFLHDHQAELHIRDVRGHDASIYVCRVEVLGLGVGTGNGTRLVVRKEHPQLGAGTHADPEAPEAEGAPSVFLFPPKPKDTLMISRTPEVTCVVVDVSHEDPEVKFNWYVDGVEVHNAKTPREEQYNSTYRVVSVLTVLHQDWLNGKEYKCKVSNKALPAPIEKTISKAKGQPREPQVYTLPPSRDELTKNQVSLTCLVKGFYPSDIAVEWESNGQPENNYKTTPPVLDSDGSFFLYSKLTVDKSRWQQGNVFSCSVMHEALHNHYTQKSLSLSPGK
# Key:
# Assay in all cases: glycan array binding signal (z-score within array); higher = stronger binding
# Conditions in all cases: glycan notation: IUPAC condensed, linker removed
# [1] = target: GlcNAc(b1-6)GalNAc
# In short: (§1)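 Arrays were curated from the Consortium for Functional Glycomics database, 3228 in total, and kept only where the protein sequence was available. Binding is expressed as a within-array Z-score. This score was averaged across arrays of the same protein sequence at different concentrations or buffers and across linkers, and negative values can be read as non-binding.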
# [2] = target: GlcNAc3Prop(b1-4)GlcNAc
# In short: as §1
# [3] = target: Kdn(a2-3)Gal(b1-3)GlcNAc
# In short: as §1
# [4] = target: Kdn(a2-3)Gal(b1-4)GlcNAc
# In short: as §1
# [5] = target: Man(a1-2)Man(a1-2)Man(a1-3)Man
# In short: as §1
# [6] = target: Man(a1-2)Man(a1-2)Man(a1-6)[Man(a1-3)]Man
# In short: as §1
# [7] = target: Man(a1-2)Man(a1-3)Man
# In short: as §1
# [8] = target: Man(a1-2)Man(a1-3)[Man(a1-2)Man(a1-6)]Man
# In short: as §1
# [9] = target: Man(a1-2)Man(a1-3)[Man(a1-2)Man(a1-6)]Man(a1-6)[Man(a1-2)Man(a1-2)Man(a1-3)]Man
# In short: as §1
# [10] = target: Man(a1-2)Man(a1-3)[Man(a1-2)Man(a1-6)]Man(a1-6)[Man(a1-2)Man(a1-2)Man(a1-3)]Man(b1-4)GlcNAc(b1-4)GlcNAc
# In short: as §1
# [11] = target: Man(a1-2)Man(a1-3)[Man(a1-6)]Man(a1-6)[Man(a1-2)Man(a1-3)]Man(b1-4)GlcNAc(b1-4)GlcNAc
# In short: as §1
# [12] = target: Man(a1-2)Man(a1-6)[Man(a1-3)]Man(a1-6)[Man(a1-2)Man(a1-2)Man(a1-3)]Man
# In short: as §1
# [13] = target: Man(a1-2)Man(a1-6)[Man(a1-3)]Man(a1-6)[Man(a1-2)Man(a1-2)Man(a1-3)]Man(b1-4)GlcNAc(b1-4)GlcNAc
# In short: as §1
# [14] = target: Man(a1-3)[Man(a1-6)]Man
# In short: as §1
# [15] = target: Man(a1-3)[Man(a1-6)]Man(a1-6)[Man(a1-2)Man(a1-3)]Man(b1-4)GlcNAc(b1-4)GlcNAc
# In short: as §1
# [16] = target: Man(a1-3)[Man(a1-6)]Man(a1-6)[Man(a1-3)]Man
# In short: as §1
# [17] = target: Man(a1-3)[Man(a1-6)]Man(a1-6)[Man(a1-3)]Man(b1-4)GlcNAc(b1-4)GlcNAc
# In short: as §1
# [18] = target: Man(a1-3)[Man(a1-6)]Man(b1-4)GlcNAc(b1-4)GlcNAc
# In short: as §1
# [19] = target: Man(a1-6)Man
# In short: as §1
# [20] = target: Man(b1-4)GlcNAc
# In short: as §1
# [21] = target: Neu5Ac(a2-3)Gal
# In short: as §1
# [22] = target: Neu5Ac(a2-3)Gal(b1-3)GalNAc
# In short: as §1
# [23] = target: Neu5Ac(a2-3)Gal(b1-3)GalNAc(b1-3)Gal(a1-4)Gal(b1-4)Glc
# In short: as §1
# [24] = target: Neu5Ac(a2-3)Gal(b1-3)GalNAc(b1-3)Gal(b1-4)GlcNAc
# In short: as §1
# [25] = target: Neu5Ac(a2-3)Gal(b1-3)GalNAc(b1-4)[Neu5Ac(a2-3)]Gal(b1-4)Glc
# In short: as §1
# [26] = target: Neu5Ac(a2-3)Gal(b1-3)GalNAc6S
# In short: as §1
# [27] = target: Neu5Ac(a2-3)Gal(b1-3)GlcNAc
# In short: as §1
# [28] = target: Neu5Ac(a2-3)Gal(b1-3)GlcNAc(b1-3)Gal(b1-3)GlcNAc
# In short: as §1
# [29] = target: Neu5Ac(a2-3)Gal(b1-3)GlcNAc6S
# In short: as §1
# [30] = target: Neu5Ac(a2-3)Gal(b1-3)[Fuc(a1-4)]GlcNAc
# In short: as §1
# [31] = target: Neu5Ac(a2-3)Gal(b1-3)[Fuc(a1-4)]GlcNAc(b1-3)Gal(b1-4)[Fuc(a1-3)]GlcNAc
# In short: as §1
# [32] = target: Neu5Ac(a2-3)Gal(b1-3)[Neu5Ac(a2-3)Gal(b1-4)]GlcNAc
# In short: as §1
# [33] = target: Neu5Ac(a2-3)Gal(b1-3)[Neu5Ac(a2-6)]GalNAc
# In short: as §1
# [34] = target: Neu5Ac(a2-3)Gal(b1-4)Glc
# In short: as §1
# [35] = target: Neu5Ac(a2-3)Gal(b1-4)GlcNAc
# In short: as §1
# [36] = target: Neu5Ac(a2-3)Gal(b1-4)GlcNAc(b1-2)Man(a1-3)[GlcNAc(b1-2)Man(b1-4)GlcNAc(b1-2)Man(a1-6)]Man(b1-4)GlcNAc(b1-4)GlcNAc
# In short: as §1
# [37] = target: Neu5Ac(a2-3)Gal(b1-4)GlcNAc(b1-2)Man(a1-3)[Neu5Ac(a2-6)Gal(b1-4)GlcNAc(b1-2)Man(a1-6)]Man(b1-4)GlcNAc(b1-4)GlcNAc
# In short: as §1
# [38] = target: Neu5Ac(a2-3)Gal(b1-4)GlcNAc(b1-3)Gal(b1-3)GlcNAc
# In short: as §1
# [39] = target: Neu5Ac(a2-3)Gal(b1-4)GlcNAc(b1-3)Gal(b1-4)GlcNAc
# In short: as §1
# [40] = target: Neu5Ac(a2-3)Gal(b1-4)GlcNAc(b1-3)Gal(b1-4)GlcNAc(b1-3)Gal(b1-4)GlcNAc
# In short: as §1
# [41] = target: Neu5Ac(a2-3)Gal(b1-4)GlcNAc(b1-3)Gal(b1-4)[Fuc(a1-3)]GlcNAc
# In short: as §1
# [42] = target: Neu5Ac(a2-3)Gal(b1-4)GlcNAc(b1-6)[Gal(b1-3)]GalNAc
# In short: as §1
# [43] = target: Neu5Ac(a2-3)Gal(b1-4)GlcNAc(b1-6)[Neu5Ac(a2-3)Gal(b1-3)]GalNAc
# In short: as §1
# [44] = target: Neu5Ac(a2-3)Gal(b1-4)GlcNAc6S
# In short: as §1
binder,measurement,setting,value
B1,glycan array binding signal (z-score),[1],-0.344
same,glycan array binding signal (z-score),[2],-0.446
same,glycan array binding signal (z-score),[3],-0.276
same,glycan array binding signal (z-score),[4],-0.251
same,glycan array binding signal (z-score),[5],-0.025
same,glycan array binding signal (z-score),[6],-0.149
same,glycan array binding signal (z-score),[7],-0.11
same,glycan array binding signal (z-score),[8],-0.612
same,glycan array binding signal (z-score),[9],-0.573
same,glycan array binding signal (z-score),[10],-0.465
same,glycan array binding signal (z-score),[11],-0.318
same,glycan array binding signal (z-score),[12],-0.314
same,glycan array binding signal (z-score),[13],-0.41
same,glycan array binding signal (z-score),[14],-0.025
same,glycan array binding signal (z-score),[15],-0.427
same,glycan array binding signal (z-score),[16],-0.359
same,glycan array binding signal (z-score),[17],-0.192
same,glycan array binding signal (z-score),[18],-0.289
same,glycan array binding signal (z-score),[19],-0.577
same,glycan array binding signal (z-score),[20],-0.521
same,glycan array binding signal (z-score),[21],-0.18
same,glycan array binding signal (z-score),[22],-0.153
same,glycan array binding signal (z-score),[23],-0.287
same,glycan array binding signal (z-score),[24],-0.494
same,glycan array binding signal (z-score),[25],-0.646
same,glycan array binding signal (z-score),[26],0.104
same,glycan array binding signal (z-score),[27],0.054
same,glycan array binding signal (z-score),[28],0.007
same,glycan array binding signal (z-score),[29],-0.236
same,glycan array binding signal (z-score),[30],-0.058
same,glycan array binding signal (z-score),[31],0.394
same,glycan array binding signal (z-score),[32],-0.341
same,glycan array binding signal (z-score),[33],-0.03
same,glycan array binding signal (z-score),[34],-0.284
same,glycan array binding signal (z-score),[35],0.12
same,glycan array binding signal (z-score),[36],-0.438
same,glycan array binding signal (z-score),[37],-0.27
same,glycan array binding signal (z-score),[38],-0.795
same,glycan array binding signal (z-score),[39],-0.494
same,glycan array binding signal (z-score),[40],-0.284
same,glycan array binding signal (z-score),[41],-0.395
same,glycan array binding signal (z-score),[42],-0.411
same,glycan array binding signal (z-score),[43],-0.587
same,glycan array binding signal (z-score),[44],0.043
